Assay [1] addresses T1, Strep-CDAN1 BDA1* HMHA2* BDA2* (three elements mutated) (human) (UniProt Q8IWY9).
T1 sequence: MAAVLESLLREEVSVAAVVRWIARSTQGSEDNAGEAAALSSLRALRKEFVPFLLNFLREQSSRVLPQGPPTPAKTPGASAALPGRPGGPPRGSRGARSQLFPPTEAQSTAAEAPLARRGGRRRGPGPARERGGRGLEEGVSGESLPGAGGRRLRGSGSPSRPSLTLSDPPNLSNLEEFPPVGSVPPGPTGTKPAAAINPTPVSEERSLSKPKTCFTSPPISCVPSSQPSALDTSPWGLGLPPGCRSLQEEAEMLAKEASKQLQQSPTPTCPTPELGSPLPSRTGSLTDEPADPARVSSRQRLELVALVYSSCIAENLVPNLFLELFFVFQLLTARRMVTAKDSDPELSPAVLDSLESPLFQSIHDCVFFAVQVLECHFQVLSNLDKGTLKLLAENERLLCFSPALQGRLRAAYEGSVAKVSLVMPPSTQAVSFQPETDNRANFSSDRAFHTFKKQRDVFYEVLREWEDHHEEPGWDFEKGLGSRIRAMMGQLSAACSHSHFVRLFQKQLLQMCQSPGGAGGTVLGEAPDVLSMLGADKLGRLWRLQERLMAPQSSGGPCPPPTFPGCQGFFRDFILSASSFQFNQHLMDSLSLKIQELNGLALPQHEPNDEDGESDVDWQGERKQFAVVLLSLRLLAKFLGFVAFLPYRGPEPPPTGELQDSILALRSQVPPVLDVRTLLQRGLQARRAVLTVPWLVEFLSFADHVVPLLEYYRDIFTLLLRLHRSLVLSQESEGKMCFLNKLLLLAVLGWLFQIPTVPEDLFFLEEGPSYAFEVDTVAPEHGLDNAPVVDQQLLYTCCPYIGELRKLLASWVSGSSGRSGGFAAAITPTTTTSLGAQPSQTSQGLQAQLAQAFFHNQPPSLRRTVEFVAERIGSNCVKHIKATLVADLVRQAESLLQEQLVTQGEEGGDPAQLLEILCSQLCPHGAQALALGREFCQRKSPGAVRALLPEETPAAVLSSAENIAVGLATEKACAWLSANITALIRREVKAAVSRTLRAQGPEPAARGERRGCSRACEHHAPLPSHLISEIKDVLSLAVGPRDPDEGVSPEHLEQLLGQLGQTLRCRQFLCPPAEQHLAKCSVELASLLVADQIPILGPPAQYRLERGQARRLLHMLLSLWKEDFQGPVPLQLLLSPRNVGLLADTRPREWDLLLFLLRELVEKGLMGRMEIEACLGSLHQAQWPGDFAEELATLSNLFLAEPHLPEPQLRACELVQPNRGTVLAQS
As to the kind of experiment: pull-down; Strep-Tactin pulldown of transiently transfected ST-CDAN1 variants from Flp-In 293 T-REx lysates; endogenous ASF1A, ASF1B and CDIN1 detected by immunoblotting; IP buffer with 1% Triton X-100, 1 hr at 4 °C.

In assay [2] the target is T2, Strep-CDAN1 BDA2* (S194A/R195A/R196A) (human) (UniProt Q8IWY9).
T2 sequence: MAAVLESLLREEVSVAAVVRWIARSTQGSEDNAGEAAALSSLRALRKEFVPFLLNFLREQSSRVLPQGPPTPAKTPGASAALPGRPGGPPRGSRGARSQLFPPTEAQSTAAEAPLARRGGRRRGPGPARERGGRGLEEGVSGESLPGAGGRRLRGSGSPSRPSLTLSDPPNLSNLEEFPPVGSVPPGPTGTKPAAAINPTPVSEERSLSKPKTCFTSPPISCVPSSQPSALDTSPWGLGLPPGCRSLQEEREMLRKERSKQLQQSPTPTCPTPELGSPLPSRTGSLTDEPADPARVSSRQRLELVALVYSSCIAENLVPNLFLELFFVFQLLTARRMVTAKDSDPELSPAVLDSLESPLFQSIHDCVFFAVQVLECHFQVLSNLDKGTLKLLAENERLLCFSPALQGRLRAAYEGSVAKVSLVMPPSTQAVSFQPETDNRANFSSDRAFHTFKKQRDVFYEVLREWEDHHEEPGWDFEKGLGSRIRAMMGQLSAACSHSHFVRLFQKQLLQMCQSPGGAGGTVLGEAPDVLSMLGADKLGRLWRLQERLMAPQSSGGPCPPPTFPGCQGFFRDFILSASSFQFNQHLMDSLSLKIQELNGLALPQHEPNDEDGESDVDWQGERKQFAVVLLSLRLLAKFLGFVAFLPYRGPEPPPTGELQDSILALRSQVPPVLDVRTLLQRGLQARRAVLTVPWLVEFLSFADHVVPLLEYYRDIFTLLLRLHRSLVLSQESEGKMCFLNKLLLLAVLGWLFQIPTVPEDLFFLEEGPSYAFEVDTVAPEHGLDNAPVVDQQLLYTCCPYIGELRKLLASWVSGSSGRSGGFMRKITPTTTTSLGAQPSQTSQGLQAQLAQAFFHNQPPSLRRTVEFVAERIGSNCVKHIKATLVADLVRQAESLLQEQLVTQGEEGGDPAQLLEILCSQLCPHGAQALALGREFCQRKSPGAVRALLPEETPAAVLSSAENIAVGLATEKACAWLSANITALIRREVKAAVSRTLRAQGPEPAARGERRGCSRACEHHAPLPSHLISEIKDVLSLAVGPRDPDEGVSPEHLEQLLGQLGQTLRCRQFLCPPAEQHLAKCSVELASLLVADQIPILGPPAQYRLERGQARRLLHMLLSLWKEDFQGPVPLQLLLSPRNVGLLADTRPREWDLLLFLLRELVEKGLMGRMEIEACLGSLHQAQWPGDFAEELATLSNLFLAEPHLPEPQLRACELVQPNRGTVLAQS
The description is as above.

Results are given in words; binding and its absence hold for the method and conditions named. In cells and extracts the contact can be indirect. Some results given as binding are weak or reduced against the parent protein; the word gives no strength.

B1: FLAG-tagged CDIN1 (F-CDIN1) (natural protein, UniProt Q9Y2V0 1-281, looked up)
chain: MILTKAQYDEIAQCLVSVPPTRQSLRKLKQRFPSQSQATLLSIFSQEYQKHIKRTHAKHHTSEAIESYYQRYLNGVVKNGAAPVLLDLANEVDYAPSLMARLILERFLQEHEETPPSKSIINSMLRDPSQIPDGVLANQVYQCIVNDCCYGPLVDCIKHAIGHEHEVLLRDLLLEKNLSFLDEDQLRAKGYDKTPDFILQVPVAVEGHIIHWIESKASFGDECSHHAYLHDQFWSYWNRFGPGLVIYWYGFIQELDCNRERGILLKACFPTNIVTLCHSIA
notes: C15orf41); cDNA synthesized by IDT; source: Expi293, transiently transfected, in lysate and purified in complexes (anti-FLAG, Strep-Tactin); not shown: 3xFLAG, N-terminal, kept
On to B1, for which the binding entry in assay [1] and in assay [2] was “binds” in each case.

These data come from PMC11911400, “Mechanism of ASF1 engagement by CDAN1” (Nature Communications, 2025).
